From the supplement of paper PMC8512760
This is one part of the list. Single values are uncertain, as repeats are few or missing.

test system: HCC-1187; experiment: cell viability relative to vehicle (% of vehicle); basal-like triple-negative breast cancer lines; higher = less cytotoxic; conditions: 10 µM; 72 h
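Also: stably firefly luciferase-GFP labeled cells in 96-well plates, viability read as luciferase photon flux after d-luciferin addition, treated wells normalized to vehicle wells, single-dose high-throughput screen.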

Row | SMILES | cell viability
1 | Clc1ccc2c(c1)CCc1cccnc1C2=C1CCNCC1 [Desloratadine] | 91.2
2 | CC(CN1CC(=O)NC(=O)C1)N1CC(=O)NC(=O)C1.Cl (stereo not given) [Dexrazoxane HCl (ICRF-187, ADR-529)] | 85.2
3 | CC12CCC3c4ccc(O)cc4CCC3C1CCC2=O (stereo not given) [Estrone] | 92.7
4 | S=c1nc[nH]c2nc[nH]c12 [Mercaptopurine (6-MP)] | 71.3
5 | Cl.Cl.OCCOCCN1CCN(C(c2ccccc2)c2ccc(Cl)cc2)CC1 (stereo not given) [Hydroxyzine 2HCl] | 114
6 | CC(C)C(N)C(=O)OCC(CO)OCn1cnc2c(=O)nc(N)[nH]c21.Cl (stereo not given) [Valganciclovir HCl] | 88.4
7 | Cl.OC(CNCC(O)C1CCc2cc(F)ccc2O1)C1CCc2cc(F)ccc2O1 (stereo not given) [Nebivolol] | 72.6
8 | COc1ccc2cccc(CCNC(C)=O)c2c1 [Agomelatine] | 90.5
9 | Cc1ccc(-c2cc(C(F)(F)F)nn2-c2ccc(S(N)(=O)=O)cc2)cc1 [Celecoxib] | 89.4
10 | O=C([O-])Cc1ccccc1Nc1c(Cl)cccc1Cl.[K+] [Diclofenac Potassium] | 94.3
11 | Cc1noc(NS(=O)(=O)c2ccc(N)cc2)c1C [Sulfisoxazole] | 80.1
12 | CN(C)C(=N)N=C(N)N.Cl [Metformin HCl] | 95.1
13 | CC1(COc2ccc3c(c2)ncn3-c2ccc3cccc(N4CCC(N)CC4)c3n2)COC1 | 26.6
14 | FC(F)(F)c1ccc(C=Cc2nc(COc3ccc(CCCCn4ccnn4)cc3)co2)cc1 [Mubritinib (TAK 165)] | 70.4
15 | CCCNC1CCc2nc(N)sc2C1.Cl.Cl.O (stereo not given) [Pramipexole 2HCl Monohydrate] | 113
16 | CO[C@H]1/C=C/O[C@@]2(C)Oc3c(C)c(O)c4c(O)c(c5c(nc6cc(C)ccn65)c4c3C2=O)NC(=O)/C(C)=C\C=C\[C@H](C)[C@H](O)[C@@H](C)[C@H](O)[C@@H](C)[C@H](OC(C)=O)[C@@H]1C [Rifaximin (Xifaxan)] | 110
17 | OCCOCCN1CCN(C2=Nc3ccccc3Sc3ccccc32)CC1 [Quetiapine] | 105
18 | CC(=O)Nc1ccc(O)cc1 [Acetaminophen] | 95.3
19 | COc1ccc(C2CNC(=O)C2)cc1OC1CCCC1 (stereo not given) [Rolipram] | 89.8
20 | CN(C)CCC=C1c2ccccc2COc2ccc(CC(=O)O)cc21.Cl [Olopatadine HCl] | 94

Row | SMILES | cell viability
21 | COc1c(N2CCNC(C)C2)c(F)cc2c(=O)c(C(=O)O)cn(C3CC3)c12 (stereo not given) [Gatifloxacin] | 99.4
22 | Nc1ncn(C2CC(O)C(CO)O2)c(=O)n1 (stereo not given) | 159
23 | CCCCOc1cc(C(=O)OCCN(CC)CC)ccc1N.Cl [Oxybuprocaine HCl] | 115
24 | Cc1cc(C)nc(NS(=O)(=O)c2ccc(N)cc2)n1 [Sulfamethazine] | 86.4
25 | CCN(CC)CC#CCOC(=O)C(O)(c1ccccc1)C1CCCCC1 (stereo not given) [Oxybutynin] | 111
26 | CC1(C)CCC(c2ccc(Cl)cc2)=C(CN2CCN(c3ccc(C(=O)NS(=O)(=O)c4ccc(NC(CCN5CCOCC5)CSc5ccccc5)c(S(=O)(=O)C(F)(F)F)c4)cc3)CC2)C1 (stereo not given) [ABT-263 (Navitoclax)] | 61.6
27 | CC(C)(C)NCC(O)COc1nsnc1N1CCOCC1.O=C(O)C=CC(=O)O (stereo not given) [Timolol Maleate] | 98.7
28 | CN1CCCC1c1cccnc1.O=C(O)C(O)C(O)C(=O)O.O=C(O)C(O)C(O)C(=O)O (stereo not given) [Nicotine Difartrate] | 117
29 | CO/N=C(\C(=O)N[C@@H]1C(=O)N2C(C(=O)[O-])=C(COC(C)=O)CS[C@H]12)c1csc(N)n1.[Na+] [Cefotaxime (sodium salt)] | 90.7
30 | Cc1nc2c([nH]1)CCN(C(=O)c1ccc(NC(=O)c3ccccc3-c3ccccc3)cc1)c1ccccc1-2.Cl [Conivaptan HCl] | 96.7
31 | Cc1cncc(CN2CCC(=C3c4ccc(Cl)cc4CCc4cccnc43)CC2)c1.O=C(O)C=CC(=O)O [Rupatadine Fumarate] | 79.9
32 | Cn1c([N+](=O)[O-])cnc1COC(N)=O [Ronidazole] | 80.8
33 | COc1cc(NS(=O)(=O)c2ccc(N)cc2)nc(OC)n1 [Sulfadimethoxine] | 102
34 | O=c1nc[nH]c2c1ncn2C1CCC(CO)O1 (stereo not given) [Didanosine] | 98.5
35 | C[C@@H]1C\C=C/C=C\C=C/C=C\[C@H](O[C@@H]2O[C@H](C)[C@@H](O)[C@H](N)[C@@H]2O)C[C@@H]2O[C@](O)(C[C@@H](O)C[C@H]3O[C@@H]3/C=C\C(=O)O1)C[C@H](O)[C@H]2C(=O)O [Natamycin] | 63.4
36 | Cc1cc(=O)n(-c2ccccc2)n1C [Antipyrine] | 88.2
37 | CC1c2cccc(O)c2C(O)=C2C(=O)C3(O)C(O)=C(C(N)=O)C(=O)C(N(C)C)C3C(O)C21.Cl (stereo not given) [Doxycycline HCl] | 84.8
38 | Cc1cnc(C(=O)O)c[n+]1[O-] [Acipimox] | 104
39 | OC(Cn1cncn1)(Cn1cncn1)c1ccc(F)cc1F [Fluconazole hydrate] | 95.8
40 | C=C[C@@H]1C[N@@]2CC[C@H]1C[C@@H]2[C@H](O)c1ccnc2ccc(OC)cc12 [Quinidine] | 83
